Data from PubChem BioAssay AID1030 (National Center for Advancing Translational Sciences (NCATS), 2008).
Several values for one entry are separate records, joined by “and”; a condition that tells them apart may be missing. Equal values may be shown once. In all, about 220,000 compounds went through this assay and about 16,000 (7.3%) were called active. The shares of active, inactive and inconclusive entries below differ from those in the screen. Calls follow the shape of the dose curve; as a rule, active = well fitted inhibition curve with a large enough effect (not every such curve was filed as active); inconclusive = small, poorly fitted or top-dose-only effect, or another doubt; inactive = no such curve, though single readings can be large or run the other way. Potencies of inconclusive entries are left out as doubtful fits.

biological target: Aldehyde dehydrogenase 1A1 (Homo sapiens) (UniProt P00352); assay: qHTS Assay for Inhibitors of Aldehyde Dehydrogenase 1 (ALDH1A1); details: Purified ALDH1A1, NADH fluorescence, propionaldehyde substrate; series mostly up to 75.3 µM;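 as to activity, negative = inhibition: plate controls were no enzyme wells and a reference inhibitor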
Potency is read from the fitted curve at half-maximal effect; tags tell the direction and shape of the fitted curve.

Chain of UniProt P00352 (P00352 whole entry, looked up): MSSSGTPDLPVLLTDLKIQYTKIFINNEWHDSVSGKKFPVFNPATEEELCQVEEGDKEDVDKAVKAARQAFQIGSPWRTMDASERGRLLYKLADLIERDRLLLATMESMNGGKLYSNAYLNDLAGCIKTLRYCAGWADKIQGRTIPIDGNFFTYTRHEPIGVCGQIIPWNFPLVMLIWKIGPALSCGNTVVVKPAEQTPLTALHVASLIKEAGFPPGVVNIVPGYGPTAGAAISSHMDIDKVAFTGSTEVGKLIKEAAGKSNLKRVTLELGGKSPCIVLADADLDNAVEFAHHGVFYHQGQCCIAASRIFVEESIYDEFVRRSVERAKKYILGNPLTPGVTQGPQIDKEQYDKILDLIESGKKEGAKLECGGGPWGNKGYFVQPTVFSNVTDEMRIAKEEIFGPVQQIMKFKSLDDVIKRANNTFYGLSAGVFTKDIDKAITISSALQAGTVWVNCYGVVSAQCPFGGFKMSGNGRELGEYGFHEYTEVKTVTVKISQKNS

| SMILES | Potency | activity, negative = inhibition |
| --- | --- | --- |
| CCN1CCCC1CNC(=O)c1ccc(N2CCOCC2)c(NS(=O)(=O)c2ccc(OC)cc2)c1 (configuration not stated) | inconclusive [inhibitor, single point] |  |
| CCOC(=O)CC1C(=O)NCCN1C(=O)c1cc2c(=O)n3ccccc3nc2s1 (configuration not stated) | inconclusive [inhibitor, partial curve] |  |
| CCOC(=O)C1=C(c2ccccc2)OC(N)=C(C#N)C1C1CCCCC1 (configuration not stated) | inconclusive [inhibitor, single point] |  |
| c1cncc(CNc2ncncc2-c2ccoc2)c1 | inconclusive [inhibitor, partial curve] |  |
| Cc1ccc(C2=Nc3cccnc3C(c3ccccc3)=NN2)cc1 | inactive |  |
| CCOC(=O)c1cnc2c(OC)cccc2c1N1CCN(c2ccc(OC)cc2)CC1 | inconclusive [inhibitor, single point] |  |
| CCOCCCNC(=O)C(c1ccc(C)cc1)N(Cc1ccc2c(c1)OCO2)C(=O)CNC(C)=O (configuration not stated) | inactive |  |
| CCCCC | inactive |  |
| CC(=O)c1c(N2CCN(c3ccccn3)CC2)nc(=S)n(-c2ccccc2)c1C | inconclusive [inhibitor, single point] |  |
| C=CCn1c(=N)n(CC(=O)c2cccc([N+](=O)[O-])c2)c2ccccc21 | inactive |  |
| COc1ccc(C(=O)CSc2nnc(NC(=O)C3CC(=O)N(c4ccccc4)C3)s2)cc1 (configuration not stated) | inconclusive [inhibitor, partial curve] |  |
| CC(C)NS(=O)(=O)c1ccc(CCC(=O)NCc2ccco2)cc1 | inconclusive [inhibitor, single point] |  |
| O=S(=O)(C[C@H](O)C(Cl)(Cl)Cl)NNc1ccccc1 |  | inactive: 10.4% [at 13.5 µM] |
| O=C1NC(=S)N/C1=C/c1cc([N+](=O)[O-])ccc1N1CCOCC1 | active: 25.1 µM |  |
| COc1ccc2c(c1)CCc1cn3nc(C)cc3nc1-2 | inconclusive [inhibitor, single point] |  |
| CN(C(=O)CSc1nnc(-c2ccc(F)cc2)c2ccccc12)C1CCS(=O)(=O)C1 (configuration not stated) | inconclusive [inhibitor, single point] |  |
| CC1(C)NC(=O)N(CC(O)COc2ccc(-c3ccc(C#N)cc3)cc2)C1=O (configuration not stated) | inconclusive [inhibitor, single point] |  |
| CSc1ccc(/C=N/NC(=O)c2sccc2C)cc1 | inconclusive [inhibitor, single point] |  |
| CCOC(=O)c1ccc(NC(=O)CSc2nc(C)cc(=O)[nH]2)cc1 | inactive |  |
| Cc1ccc(S(=O)(=O)Nc2nc(C)c(C(=O)NNS(=O)(=O)c3ccccc3)s2)cc1 | inconclusive [inhibitor, single point] |  |
| CCCn1c2ccccc2c2nnc(SCC(=O)OCC)nc21 | inconclusive [inhibitor, partial curve] |  |
| Cc1ccc(C(=O)Oc2coc(CSc3nnc(NC(=O)C4CC4)s3)cc2=O)cc1C | inconclusive [inhibitor, partial curve] |  |
| Cc1cccc(NC(=O)c2cc3n(n2)C(C(F)(F)F)CC(c2ccc4c(c2)OCO4)N3)c1 (configuration not stated) | inconclusive [inhibitor, single point] |  |
| COc1ccc2cc(CN(Cc3ccco3)Cc3nnnn3C3CCCCC3)c(=O)[nH]c2c1 | active: 7.94 µM |  |

| SMILES | Potency | activity, negative = inhibition |
| --- | --- | --- |
| CCCOc1ccc(N2C(=O)CC(SC(=N)N3N=C(c4ccccc4)CC3c3ccccc3)C2=O)cc1 (configuration not stated) | inconclusive [inhibitor, single point] |  |
| CCc1nnc2cccc(Cl)n12 | inactive |  |
| CCOC(=O)/C(C#N)=C1\CCCN1CC(N)=S | active: 20 µM |  |
| CCn1cc(CN2CCc3c([nH]c4ccccc34)C2c2cccc(OC)c2)c(C)n1 (configuration not stated) | inactive |  |
| Cc1ccc(S(=O)(=O)N2CCOCC2)cc1C(=O)N1CCOCC1 | inactive |  |
| C[C@@H](C(=O)Nc1ccc2ccccc2c1)[C@H]1C[C@]1(C)[C@H](NC(=O)c1cnccn1)c1ccccc1 | active: 10 µM and active: 11.2 µM |  |
| CC1CN(C(=O)CSc2nnc(-c3ccncc3)n2-c2ccccc2)CC(C)O1 (configuration not stated) | inconclusive [inhibitor, partial curve] |  |
| COc1ccc([N+](=O)[O-])c(OC)c1C(=O)NC(=O)Nc1nc(C)cc(C)n1 | inactive |  |
| Cc1ccc(NC(=S)N2CCCC(CO)C2)c(C)c1 (configuration not stated) | inactive |  |
| O=C(Nc1ccccc1C(=O)NCc1ccccc1)c1ccccc1Br | inconclusive [inhibitor, single point] |  |
| O=S(=O)(c1cc(Cl)cc(Cl)c1)N1CCCC1c1nc2ccccc2s1 (configuration not stated) | inactive |  |
| O=C(c1ccco1)N(Cc1cc2ccccc2[nH]c1=O)C1CCCCC1 | inconclusive [inhibitor, single point] |  |
| O=C(CCN1C(=O)/C(=C/C=C/c2ccccc2)SC1=S)Nc1ccccn1 | inactive |  |
| Cc1c(NC(=O)c2c(N)n(-c3ccccc3)c3nc4ccccc4nc23)c(=O)n(-c2ccccc2)n1C | inconclusive [inhibitor, single point] |  |
| COc1cc(OC)c(C2CC(=O)N3CN(c4ccc(C)cc4)CSC3=C2C#N)cc1OC (configuration not stated) | active: 7.94 µM |  |
| CCOC(=O)N1CCN(c2cc(NCCC(=O)O)c3c4c(onc24)-c2ccccc2C3=O)CC1 | active: 14.1 µM |  |
| Cc1nc2ccc(NC(=O)c3sccc3C)cc2s1 | inactive |  |
| Cc1ccc(C)c(-n2ccnc2SCC(N)=O)c1 | inactive |  |
| O=C(Nc1ccc(N2CCOCC2)c(Cl)c1)c1ccccc1F | inconclusive [inhibitor, single point] |  |
| CN(C)c1ccc(/C=C/C(O)=C2/C(=O)N(C)C3(C)CC2c2ccccc2O3)cc1 (configuration not stated) | active: 20 µM |  |
| Oc1c(Br)cc(Br)cc1C=NCc1ccccc1 | inactive |  |
| O=C(COc1ccc(S(=O)(=O)N2CCCC2)cc1Cl)NCc1ccco1 | inconclusive [inhibitor, single point] |  |
| O=C(NN1C(=O)c2ccccc2NC12CCCCC2)c1ccccc1 | inconclusive [inhibitor, partial curve] |  |
